Experimental data taken from the supplement of paper PMC3334620.
In all, about 33,000 sequences were measured (“E-score (-0.5 to 0.5)”: median about -0.021, highest 2% from about 0.32 on). The list shows a part of the results.

molecular target: T1, Zap1 (UniProt P47043); assay: PBM E-score (8-mer binding enrichment) (E-score (-0.5 to 0.5)); higher = stronger / more preferred TF binding; most listed sequences are background and not binding sites; conditions: protein concentration: 200 nM; construct: GST-full length
T1 sequence: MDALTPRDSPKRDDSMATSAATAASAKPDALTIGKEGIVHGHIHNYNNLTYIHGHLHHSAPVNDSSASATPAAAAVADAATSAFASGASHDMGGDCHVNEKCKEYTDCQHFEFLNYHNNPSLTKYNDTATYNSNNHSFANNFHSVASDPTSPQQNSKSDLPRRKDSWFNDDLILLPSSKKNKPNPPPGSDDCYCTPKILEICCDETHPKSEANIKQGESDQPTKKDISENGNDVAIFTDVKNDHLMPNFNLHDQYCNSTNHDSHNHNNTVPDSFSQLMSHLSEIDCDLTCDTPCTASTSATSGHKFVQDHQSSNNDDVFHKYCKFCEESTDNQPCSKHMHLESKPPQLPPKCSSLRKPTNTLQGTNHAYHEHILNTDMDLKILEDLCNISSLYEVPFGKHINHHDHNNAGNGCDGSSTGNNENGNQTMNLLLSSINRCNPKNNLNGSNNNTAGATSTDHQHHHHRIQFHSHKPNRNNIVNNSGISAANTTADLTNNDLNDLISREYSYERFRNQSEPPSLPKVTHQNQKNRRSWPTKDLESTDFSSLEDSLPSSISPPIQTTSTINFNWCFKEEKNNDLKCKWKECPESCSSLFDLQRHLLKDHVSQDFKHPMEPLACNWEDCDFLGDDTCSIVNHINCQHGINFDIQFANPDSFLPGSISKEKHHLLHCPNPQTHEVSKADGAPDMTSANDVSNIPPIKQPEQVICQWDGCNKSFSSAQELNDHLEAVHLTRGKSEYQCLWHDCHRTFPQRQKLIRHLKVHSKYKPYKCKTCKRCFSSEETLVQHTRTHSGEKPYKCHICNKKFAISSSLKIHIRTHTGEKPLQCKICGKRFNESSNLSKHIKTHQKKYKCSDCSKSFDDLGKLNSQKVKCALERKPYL
In short: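 Full-length yeast transcription factors or their DNA-binding domains, GST-tagged and expressed with PURExpress, were applied at about 100-200 nM to universal all-10-mer Agilent arrays. These arrays had been made double-stranded by primer extension on fresh or once-stripped slides. Detection used fluorescent anti-GST, normalisation used masliner, and E-scores for ungapped eight-base words pooled with reverse complements came from the Universal PBM Analysis Suite.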

Sequence	PBM E-score
ACCCTGAT	0.344
AACGATGG	-0.0888
ACAGAACT	0.00266
ACCATGAC	0.232
AAGTCTAG	-0.264
ACACAGTA	0.0878
ATTTGACC	0.172
GCACCTGA	0.0331
GCAAGGAC	-0.111
AAGACAAC	0.23
GCGGAAAA	-0.0196
ACCTTTAC	0.307
GGCGGTGA	-0.101
TATCAACA	0.115
TAACTTAA	0.202
CGCGCCCA	0.117
GCAGTCGA	-0.184
ACGGCTAA	-0.0161
CTTAATAA	0.0375
GAGACAAA	-0.173
AACAGTGC	-0.151
GAAATAAC	0.221
CACGAGTG	-0.0272
ACAGAAAG	0.11
AGAGTGTC	0.151

Sequence	PBM E-score
AGCACATG	0.0785
CAGGTCCC	0.0637
GTATAGTA	0.0617
ATATGCAT	-0.0211
CTCAAAGA	0.0384
CCTCACAA	0.202
AATCTCGT	-0.067
TAAAAATA	0.267
ATGAAGTA	0.043
AGTTCAGC	-0.273
GTCGTCAA	0.00042
CGATTGGA	-0.0902
GAATATAC	-0.0293
AATCGACG	-0.0961
ACTATAAA	0.166
GGGCACTA	-0.0582
ATATCTTG	-0.023
AACAACAG	-0.0493
CAAGGACA	-0.0888
CTGGTAGC	-0.014
CATAGTCG	-0.103
ACCCTCCG	0.228
CGTATTGA	0.13
AAGAATGC	-0.013
ACCGGACG	0.124

Sequence	PBM E-score
AGCGCTTG	-0.18
GTGGTAAC	0.36
CGTCAAAA	0.121
ATATGGAA	-0.174
ATGTGTGC	-0.333
CTTGCGGA	0.00423
TAGTGCAA	0.036
CATAACGA	-0.0645
CGCAATAA	0.174
ACGTAACA	0.157
ATCTAAGA	0.0622
GGACCGAA	0.0782
ACGGCCGT	0.00961
AAGGGAAC	0.0495
ATTACAGG	0.218
ATGACAGA	-0.0197
ACATATAA	0.239
GTTAGCCA	-0.0438
AACTACGT	-0.123
GGATGCAC	-0.113
GCCGGCAC	-0.0403
AGTTGGTC	0.0383
ATTCGAAA	0.134
GGGGCCAC	0.0811
AACGCCCT	-0.0779

Sequence	PBM E-score
ACGCTCGG	-0.00542
CGGAGGAG	-0.2
CAACAGCG	-0.197
CAAATCGC	-0.12
GAGGGACC	0.0579
CTTAAGTC	0.0161
CAAGGAGA	-0.191
AAAACGAT	0.0614
AGCGACAT	-0.115
CCGAACCG	-0.0432
ATTATACA	0.0605
CCTCCAAC	-0.0378
CACAGAAG	-0.0477
ACGATATA	0.0765
TCATCCGA	0.202
CCGACGCG	-0.133
TAGCAGCA	-0.0224
ACATGCTC	-0.116
TAATGGGA	-0.234
ATATAAGC	-0.0201
CCGTGCCA	-0.322
CACGAAAC	-0.0882
GGCAAAAC	-0.00371
GCAATACC	0.191
AGGACAAC	0.116

Sequence	PBM E-score
GCGACCTA	0.00631
CCTAAGCG	-0.112
GCTGGTGA	0.0777
ATAAAAGG	0.25
GAAATTTA	0.0377
GGAAAGAC	-0.213
AGTCCAAG	0.00822
TCTATTAA	0.123
GCTGTGAC	0.0557
ACGACTAC	-0.117
CTATAGGA	-0.0709
TCTGTTCA	-0.0546
ATCCTCCA	-0.187
ACACCCCA	0.0819
CAACAGTG	-0.0935
CGATTGAG	0.0636
ACTATGAG	-0.127
GAATTATA	0.105
CTACTACA	0.0823
AATGTCGA	0.107
GGAAGAAC	0.115
CGACGACA	-0.113
AGGAGTCA	-0.0639
CGTTCGAG	-0.0294
ACCACGGC	0.0275

Sequence	PBM E-score
CAATTGTC	0.028
ACACTACG	-0.0863
ATCTCGGA	-0.0207
GACTTATA	0.189
GCATTGTA	-0.0386
AGTGTCGA	0.127
ACAGGAAC	0.0522
CGGGCTTC	-0.211
GGCGACGA	-0.183
TTCATAAA	0.0271
AAATGCGA	0.102
ACGTGGCA	-0.291
CCGCCTCG	0.0926
AGGTTGTA	0.338
ACCCACGG	0.0434
GCGCGGAC	0.054
GTAATTTA	0.0558
ACCTGAAT	0.136
CCCTGGTC	-0.13
CCCAATGC	-0.146
ACCAAAGG	0.109
CGTTTTAA	0.149
CTAGATTC	-0.113
ATCGAACA	0.15
CTAACTCA	0.0162

Sequence	PBM E-score
ACATTTTA	0.177
GCGTTCGA	0.0467
CGGATGGC	-0.135
CTACTCAC	0.0123
ATTCGGGC	-0.247
ACTCCACA	-0.0594
AACGGTTG	0.123
ACGAATTA	-0.112
AGACGGAA	-0.142
TCCCTAAA	-0.0128
GAGTATAA	0.0781
AAAGTGAA	0.0771
AAGTGACT	-0.104
CCTGGTGA	0.0199
CAATCTCC	-0.155
AACCCGAC	0.244
GCCAGAGC	-0.311
CCCGCCAA	-0.0257
AGCCCAAA	0.0444
GGCGCAAA	-0.0447
CGGGCGGC	-0.192
ACAGCAGT	-0.0406
